# The densities may have been worked out from excess volumes.
# Assay: xn = mol fraction of the nth substance listed
# Conditions: 101 kPa
SMILES,"mass density (293.15 K, x1 = 0.25)","mass density (298.15 K, x1 = 0.25)","mass density (308.15 K, x1 = 0.25)","mass density (318.15 K, x1 = 0.25)","mass density (328.15 K, x1 = 0.25)","mass density (338.15 K, x1 = 0.25)","mass density (343.15 K, x1 = 0.25)","mass density (293.15 K, x1 = 0.75)","mass density (298.15 K, x1 = 0.75)","mass density (308.15 K, x1 = 0.75)","mass density (318.15 K, x1 = 0.75)","mass density (328.15 K, x1 = 0.75)","mass density (338.15 K, x1 = 0.75)"
CC[N+](CC)(CC)CC.[Cl-] + CC(=O)CCC(=O)O,1097.4 kg/m3,1093.9 kg/m3,1086.6 kg/m3,1079.7 kg/m3,1072.5 kg/m3,1065.7 kg/m3,1062.3 kg/m3,–,–,–,–,–,–
CC(=O)CCC(=O)O + CCCC[N+](CCCC)(CCCC)CCCC.[Cl-],–,–,–,–,–,–,–,1034.5 kg/m3,1031 kg/m3,1023.8 kg/m3,1016.7 kg/m3,1009.5 kg/m3,1002.5 kg/m3

# — a compilation of properties of binary mixtures (doi:10.1016/j.molliq.2016.07.039)
